Measured values as given in US8044100B2, “Methods and compositions for treating amyloid-related diseases” (Bellus Health Inc., priority 2004, dated 2011).
Where a name gives a salt, the structure may show the parent alone. Some of these results come from one statement about several compounds together.

Experiments:
Aβ40 = Aβ40 (Homo sapiens, UniProt P05067); experiment: Mass spectrometry (MS) assay for binding to soluble Aβ40
SH-SY5Y cells = experiment: Neuroprotection: Aβ42-induced cell death in SH-SY5Y cells, Hoechst staining; type: cell-based, human; conditions: 12 μM Aβ1-42, 240 μM compound (1:20 Aβ:drug ratio), 24 hours
[1] = @ 200 μM test compound and 20 μM solubilized Aβ40, pH 7.4, class limits, compounds tested at 200 or 400 μM
[2] = @ 400 μM test compound and 40 μM solubilized Aβ40, pH 7.4, class limits, compounds tested at 200 or 400 μM
[3] = 150 μM test compound and 30 μM solubilized Aβ40, pH 7.4

Chain of Aβ40 (P05067 672-711 limits assumed): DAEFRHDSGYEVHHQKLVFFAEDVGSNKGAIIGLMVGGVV

O=C(NCC(O)CS(=O)(=O)[O-])OCc1ccccc1.[Na+] (stereo not shown) [AC]
Aβ binding (%) (Aβ40; [1]): 20-44% @ 200 μM
Aβ binding (%) (Aβ40; [2]): 45-59% @ 400 μM;

O=C(NCCCS(=O)(=O)[O-])OCc1ccccc1.[Na+] [AE]
Aβ binding (%) (Aβ40; [1]): 20-44% @ 200 μM
Aβ binding (%) (Aβ40; [2]): 45-59% @ 400 μM;

O=C(Cc1ccccc1)NCCCS(=O)(=O)[O-].[Na+] [AG]
Aβ binding (%) (Aβ40; [1]): 30-69% @ 200 μM
Aβ binding (%) (Aβ40; [2]): 70-89% @ 400 μM;

O=C(NCCCS(=O)(=O)[O-])NCc1ccccc1.[Na+] [AH]
Aβ binding (%) (Aβ40; [1]): 20-44% @ 200 μM
Aβ binding (%) (Aβ40; [2]): 45-59% @ 400 μM;

O=C(NCCCS(=O)(=O)[O-])NC12CC3CC(CC(C3)C1)C2.[Na+] [AK]
Aβ binding (%) (Aβ40; [1]): 30-69% @ 200 μM
Aβ binding (%) (Aβ40; [2]): 70-89% @ 400 μM;

CC(C)Cc1ccc(C(C)C(=O)NCCCS(=O)(=O)[O-])cc1.[Na+] (stereo not shown) [AL]
Aβ binding (%) (Aβ40; [1]): 30-69% @ 200 μM
Aβ binding (%) (Aβ40; [2]): 70-89% @ 400 μM;

O=S(=O)([O-])CCCNC(=S)NCc1ccccc1.[Na+] [AM]
Aβ binding (%) (Aβ40; [1]): 20-44% @ 200 μM
Aβ binding (%) (Aβ40; [2]): 45-59% @ 400 μM;

NCCC(C(O)c1ccccc1)S(=O)(=O)O (stereo not shown) [Compound N25, 4-amino-1-hydroxy-1-phenyl-2-butanesulfonic acid, trifluoroacetic acid salt]
Aβ binding (%) (Aβ40; [3]): ≧70%

CC(N)CC(c1ccccc1)S(=O)(=O)O (stereo not shown) [Compound N26, 3-amino-1-phenyl-1-butanesulfonic acid, trifluoroacetic acid salt]
Aβ binding (%) (Aβ40; [3]): 40-69%

CC(C)(N)CCC(c1ccccc1)S(=O)(=O)O (stereo not shown) [Compound N27, 4-amino-4-methyl-1-phenyl-1-pentanesulfonic acid, trifluoroacetic acid salt]
Aβ binding (%) (Aβ40; [3]): 15-39%

CCC(N)CC(c1ccccc1)S(=O)(=O)O (stereo not shown) [Compound N30, 3-amino-1-phenyl-1-pentanesulfonic acid, trifluoroacetic acid salt]
Aβ binding (%) (Aβ40; [3]): ≧70%

CC(N)CCC(c1ccccc1)S(=O)(=O)O (stereo not shown) [Compound N31, 4-amino-1-phenyl-1-pentanesulfonic acid, trifluoroacetic acid salt]
Aβ binding (%) (Aβ40; [3]): 40-69%

O=S(=O)([O-])CCCNCC1CCCO1.[Na+] (stereo not shown) [Compound N47, 3-[(tetrahydrofuran-2-ylmethyl)amino]-1-propanesulfonic acid]
Aβ binding (%) (Aβ40; [3]): 40-69%
Inhibition of Aβ-induced toxicity (%) (SH-SY5Y cells): <20%

N#CC1(c2ccccc2)CCN(CCCS(=O)(=O)O)CC1 [E]
Aβ binding (%) (Aβ40; [1]): 20-44% @ 200 μM
Aβ binding (%) (Aβ40; [2]): 45-59% @ 400 μM;

CC(=O)C1(c2ccccc2)CCN(CCCS(=O)(=O)O)CC1 [I]
Aβ binding (%) (Aβ40; [1]): 30-69% @ 200 μM
Aβ binding (%) (Aβ40; [2]): 70-89% @ 400 μM;
